Reference: ChEMBL document CHEMBL4888484, “Replenishing the malaria drug discovery pipeline: Screening and hit evaluation of the MMV Hit Generation Library 1 (HGL1) against asexual blood stage Plasmodium falciparum ,using a nano luciferase reporter read-out” (2022)
The campaign covered roughly 4,800 compounds. About 410 (8.5%) showed an effect of 50% or more. The list shows a part of the results. Where a SMILES comes first, the peptide text is derived from it. The star is where a group is joined. NHPhenethyl = c1ccc(CCN*)cc1

These compounds were tested on Plasmodium falciparum (assay: Confirmatory screen in NF54 pLDH assay, in single point, at 2uM, 72h). Conditions: timepoint 72 hour.
Format: functional, Erythrocyte

| Compound | % Inhibition |
| --- | --- |
| C=CCCS(=O)(=O)NCc1ccncc1 | -10% |
| COc1ccc2cc3n(c2c1)C[C@](C(=O)NC1CCCCCC1)(c1ccccc1)N(Cc1ccccc1F)C3=O | -26% |
| Cc1ccc(S(=O)(=O)N(CC(=O)N[C@@H](C)c2ccccc2)c2cccc(Br)c2)cc1 | 11% |
| CCc1cc(=O)[nH]c(-n2nc(C3CC3)cc2NC(=O)C2CCCCC2)n1 | 87% |
| Nc1ncn(C(=O)c2ccc(Cl)cc2)n1 | -8% |
| CC(C)c1nnc(CN2CC[C@H](OC(F)F)C2)o1 | 8% |
| OC[C@H](Nc1ncncc1Br)c1ccccc1F | 10% |
| COc1ccc(-c2oc(C)c(C)[n+]2[O-])cc1OC | -3% |
| Cn1c(-c2ccc(Br)cc2)c[n+](CC(=O)c2ccc(Br)cc2)c1N | -4% |
| N#Cc1ccc(NCCc2ccc(O)cc2)cn1 | -13% |
| CC(NC(C)C1CN(C(=O)OC(C)(C)C)C1)c1ccccc1Br (stereo unspecified) | 8% |
| CN(C)Cc1ccc(NC(=O)c2cc(F)cc3c(=O)c4cc(F)ccc4[nH]c23)cc1 | 95% |
| CCc1c(C)nn2c(c1C)c(-c1ccccc1)[n+]1c(C)c(CC)c(C)nc21 | 49% |
| COCc1nncn1C1CN(C(=O)Cc2cc(OC)cc(OC)c2)C1 | -6% |
| C[n+]1ccccc1/C=C/c1c[nH]c2ccccc12 | 81% |
| Cc1ccc(NC(=O)Cn2cnc3nc(N(C)Cc4ccccc4)sc3c2=O)c(Br)c1 | -10% |
| CC[N+](CC)(CC(=O)OC1CC2CCC1(C)C2(C)C)CC(=O)OC1CC2CCC1(C)C2(C)C (stereo unspecified) | 92% |
| CCCC[C@H](CC)C(=O)NC1CCCCC1 | 8% |
| O=C(CCC1CCCC1)N1CCC(N2CCCCCC2)CC1 | 12% |
| Cc1ncsc1-c1nc(CNc2ccc(C(F)(F)F)cc2Cl)no1 | -15% |
| CC(C)c1nc(O)cc(CN2CCCCC2)n1 | 4% |
| COc1ccc(OC)c(NC(=O)c2c(C)noc2-c2ccc(Cl)cc2)c1 | 5% |

| Compound | % Inhibition |
| --- | --- |
| Cc1cc(O)nc(CN2CC(C)CC(C)C2)n1 (stereo unspecified) | 0% |
| CC(C)(C)OC(=O)N1CCC(Cn2nccc2N)CC1 | -22% |
| COc1ccc(CN(Cc2ccncc2)CC2CCN(C3CCN(C)CC3)CC2)c(F)c1 | 93% |
| CCC(=O)OC1(C#CCOc2ccc(OC)cc2)CCN(C)CC1 | 9% |
| CCOc1cc(C(=O)N[C@H]2CCS(=O)(=O)C2)cc2occc12 | 8% |
| S=c1oc2ccccc2n1CNC1CCCCC1 | 1% |
| COCc1nn2c3c(nnc2c1-c1ccccc1)C(=O)CC(C)(C)C3 | 11% |
| CC1(C)C[C@@H](NC(=O)c2cc3[nH]cnc3cc2F)CCO1 | 11% |
| O=C(CCn1nc(-c2ccc(Br)cc2)ccc1=O)NCc1ccc2c(c1)OCO2 | -6% |
| CCc1ncsc1C(=O)N(C)[C@@H]1CCC[C@H]1O | -17% |
| O=C1CN(C(=O)c2ccc(-c3ccccc3F)o2)c2ccccc2N1 | -10% |
| CC(C)c1ccc(S(=O)(=O)Nc2ccc3nc(NC(=O)c4ccccc4)sc3c2)cc1 | 6% |
| CCc1ccc(C(NC(=O)N2CC3C4CCC(O4)C3C2)C(C)(C)C)o1 (stereo unspecified) | -4% |
| C[C@H]1CCCCN1S(=O)(=O)c1ccc(-c2ccc(Cl)cc2)cc1 | 3% |
| CN(C(=O)Cc1cc(Br)ccc1F)c1nncn1C | 14% |
| C[C@@H]1C[C@@H](Nc2ccccc2)c2ccccc2N1C(=O)COc1ccc(Br)cc1 | 10% |
| CC(C)(C)c1cc(CN2CCN(S(N)(=O)=O)CC2)n[nH]1 | 9% |
| Oc1ccc(-c2nnc(-c3ccc(O)cc3)nn2)cc1 | 22% |
| O=C1CCN(C(=O)C2(c3cccc(Cl)c3)CCCC2)CCN1 | -8% |
| COc1ccc(-c2cn(-c3ccc(OC)cc3)c(N)c2C#N)cc1 | -6% |
| Cc1oc(-c2ccc(C(=O)N3CCN(c4ccccc4)CC3)cc2)nc1CN1CCC(C)CC1 | 36% |
| c1ccc2c(CCNC3(c4nnnn4CCCN4CCOCC4)CCCC3)c[nH]c2c1 | 6% |

| Compound | % Inhibition |
| --- | --- |
| O=C1CC(C(=O)NC[C@H]2C[C@@H]2C2CCC2)CN1 (stereo partly specified) | 0% |
| CCc1cc(C(=O)N[C@@H](C)c2ccccc2)c2c(C3CC3)nn(Cc3ccccc3)c2n1 | -7% |
| Cc1ccc(S(=O)(=O)Cc2nc(-c3ccc(C(=O)NCc4ccc(C)o4)cc3)oc2C)cc1 | -13% |
| Cc1cccnc1C(F)(F)C(=O)Nc1cc(C)c(O)c(C)c1 | 11% |
| Cc1ccc(OCCNc2cc([C@H]3C[C@H](N)C3)nc(C3CC3)n2)cc1C | 25% |
| Cc1nc2sc(C(=O)Nc3ccc4ccccc4c3)c(N)c2c(C)c1C | 9% |
| CNC(=O)NCc1ccccc1S(C)(=O)=O | 8% |
| CC[C@@H](CO)NCc1cccc(OC)c1OCC(=O)NC(C)(C)C | -12% |
| OCCNCc1c(Cl)cccc1Cl | 4% |
| Cc1ccc(CCC(=O)N2CC[C@H](C)S(=O)(=O)CC2)s1 | 9% |
| O=C(Nc1ccccc1)OCc1ccc(-c2ccc(Cl)cc2)o1 | 11% |
| COc1cc(C(=O)Nc2[nH]c(=O)ncc2F)ccc1Cl | 68% |
| Cc1nn(C)c(C)c1OCc1nnc(C2CCC2)n1C | -13% |
| Cc1ccc(NC(=O)COC(=O)c2nccc3ccccc23)cc1 | 11% |
| N#Cc1c(-c2ccco2)ccn(Cc2ccc(F)cc2)c1=O | 8% |
| C[C@H]1CN(c2ccc(N(C)C)cc2)C(=O)NC1=O | 6% |
| C[C@H](NC(=O)C1CC1c1ccccc1)[C@H](O)c1ccc2c(c1)OCO2 (stereo partly specified) | 11% |
| Cn1c(=O)c2c(nc3nc(N4CCOCC4)n(CC(=O)c4ccc(Cl)cc4)n32)n(C)c1=O | 0% |
| CC(N)C(=O)NC(C)C(=O)NCCc1ccccc1 (stereo not drawn) (H-Ala-Ala-NHPhenethyl; configuration not given here) | -3% |
| N#Cc1cc(Br)cc(Cl)c1O | 7% |
| COc1ccc(CNC(=O)c2ccc(N3C(=O)[C@@H]4Cc5c([nH]c6ccccc56)C(c5cccc(OC)c5)N4C3=O)cc2)cc1 (stereo partly specified) | 32% |
| Cc1oc(-c2ccn[nH]2)cc1S(=O)(=O)Nc1ccc(F)c(Cl)c1 | 0% |

| Compound | % Inhibition |
| --- | --- |
| Cc1cccc(CN(Cc2ccccn2)C(=O)Cn2c(C)cc(O)cc2=O)c1 | 11% |
| Cc1ccc(S(=O)(=O)N2C[C@@H]3CCCN3c3ccc(C(F)(F)F)cc32)cc1 | -18% |
| N#Cc1nc(NC(=O)c2cc3c(s2)CCOC3)[nH]c1C#N | 6% |
| O=C(c1ccccc1)c1ccc2n1CC[C@H]2C(=O)Nc1ccccc1C(F)(F)F | 8% |
| COc1cc(N)ccc1OCC(F)F | 11% |
| COc1ccc(Nc2nnc(-c3ccc(NC(=O)C(=O)NCCCn4ccnc4)cc3)s2)cc1 | 76% |
| CC[C@@H](c1ccncc1)N(C)Cc1cc(-c2ccc(Cl)cc2)no1 | -1% |
| Cc1nc([C@H](C)NC(=O)c2ccc(S(C)(=O)=O)cc2)cs1 | 8% |
| Nc1nccnc1C(=O)N(Cc1ccccc1)C[C@]1(O)CCc2ccccc21 | -3% |
| NC(=O)c1ccc(NC(=O)N2CCc3c(F)ccc(F)c3C2)c(F)c1 | -23% |
| Cc1c(N2CCC(C(=O)NC[C@H]3CCCO3)CC2)c(=O)n(CC(C)C)c(=O)n1-c1ccccc1 | 4% |
| Cc1csc([C@@H](C#N)C(=O)c2ccncc2)n1 | -6% |
| CCOc1ccc(Cn2cncn2)nc1 | -9% |
| O=S(=O)(C1CC1)N1CC[C@H](CO)C1 | 0% |
| CCCn1cc(CNc2nnc(C(C)(C)C)o2)cn1 | -2% |
| Cc1ccccc1N1CCN(C(=O)c2ccc3ncccc3c2)CC1 | 9% |
| CNc1nc(C)cc(C(=O)Nc2ccnn2C[C@H]2CCOC2)n1 | 0% |
| Cc1ccc(Nc2ccc(N3CCNCC3)nn2)nc1 | 58% |
| Cc1cc(=O)n(Cc2ccccc2)c2c(C)cccc12 | 12% |
| O=C(Nc1cnc2ccccc2c1)c1ccccc1C(=O)c1ccc(F)cc1 | 94% |
| C=C1C(C)C2C(Cc3c[nH]c4ccccc34)NC(=O)C23C(=O)CC(O)C(O)CC(C)C/C=C/C3C1O (stereo unspecified) | 65% |
| COc1cccc(CNC(=O)[C@H]2CCCN(c3nc4cccnc4n(C)c3=O)C2)c1OC | 1% |

| Compound | % Inhibition |
| --- | --- |
| Cc1ccccc1N1C(O)=Nc2ccccc2S1(=O)=O | -19% |
| Cc1cc(NC(=O)C(C)N2CCOC(c3nc(C(C)C)n[nH]3)C2)on1 (stereo unspecified) | 0% |
| O=C(CN1CCC[C@H](O)C1)NCC1(N2CCOCC2)CCCCC1 | -8% |
| CC1(C)N=C(c2ccc(C(C)(C)C)cc2)C(=O)N1 | 13% |
| COCc1nncn1C1CN(C(=O)CCc2ccccc2OC)C1 | -10% |
| Cc1cc(C(=O)Nc2ccc(Br)c(C)n2)no1 | -20% |
| O=C(Cc1c[nH]c2ccccc12)N1CCc2ccccc2C1 | -17% |
| O=S(=O)(Cc1ccccc1)Nc1nnc[nH]1 | 4% |
| Cc1c(-c2nn(-c3ccccc3)c(-c3cnn(C)c3C)c2Cl)cnn1C | -6% |
| Cc1[nH]ncc1CCCNCc1cccc(O)c1 | 4% |
| Cc1cc(C)n2c(-c3ccccc3C)nnc2n1 | -1% |
| CC(C)CCn1c(=O)c2sccc2n(CC(=O)N(C)c2ccccc2)c1=O | 11% |
| CCCc1cnc(NC(=O)c2cnn(C)c2C)s1 | 7% |
| O=C1NC(=O)[C@]2(CCOc3ccc(F)cc32)N1 | 4% |
| COCCOC(=O)c1cc(C(F)(F)F)cc(C(=O)OCCOC)n1 | 11% |
| O=C(c1cnc(Nc2nc3ccccc3o2)nc1)N1CCN(c2ccccc2)CC1 | 10% |
| CC(C)=CCN1CC[C@]2(CCCO2)CCC1=O | 10% |
| O=C(NCC(=O)N(C[C@H]1CCCO1)C1(C(=O)NC2CCCCC2)CCCCC1)c1ccccc1 | -8% |
